# Experiments:
# [1] = system: pathogenic fungus present in the test tube water; test: Picolinic acid induced resistance of Portulaca against pathogenic fungus (FIG. 31)
# [2] = system: normal cells (NRK, BALB 3T3, WI-348); conditions: Untransformed BALB 3T3, NRK and WI-348; cited from earlier work
structure (smiles),measurement,setting,value
"O=C(O)c1ccccn1 [Picolinic acid, 2-pyridine carboxylic acid]",root system,"[1]; continuously exposed to 6 mM PA, 10 days",profuse root system
same,fungal toxin disease resistance,[1]; treatment with picolinic acid for 10 days,fungal toxin disease resistant
same,phase of cell cycle block,[2],blocked in G1
